# Source: the supplement of paper PMC10338343
# ± gives the standard deviation. Only a part is listed here, and it is no random draw.
# Test system: MIWI (PIWIL1) piRISC loaded with L1MC piRNA (30 nt)
# Experiment: pre-steady-state target cleavage rate (min^-1); MIWI and MILI are mouse PIWI proteins and EfPiwi is from a freshwater sponge; tags in brackets are library labels; higher = faster piRNA-guided slicing of the target
# Settings: guide: L1MC piRNA 5'p-UAACUAAAUACUAUGCAAGCUGUAGGUCCU
# Summary of the method: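 In HEPES–potassium acetate buffer at 33 °C, […] transcribed, DNA-blocked target RNA library was mixed with 1 nM active affinity-purified piRISC carrying one synthetic guide, with or without 500 nM GTSF1 partner protein, for 0–8 or 0–960 min. Uncleaved targets were sequenced and normalised to depth and to weakly complementary targets; three trials were pooled and k3 was capped at 0.0001 min^-1. The pre-steady-state cleavage rate followed from a burst-and-steady-state fit.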
# [1] = auxiliary factor: 500 nM mouse GTSF1
# [2] = auxiliary factor: none (no GTSF1)
# 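Note: 1 nM active piRISC with 0.1 nM target library at 33 °C single turnover.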
sequence,measurement,setting,value
UCCUGGAACACCUUGCAUAGUAUUUAGUAA,pre-steady-state target cleavage rate,[1],0.392 ± 0.049
same,pre-steady-state target cleavage rate,[2],0.0052 ± 0.0024
UCCUGCUACAGCUUGCAAAGUAUUUACUUA,pre-steady-state target cleavage rate,[1],0.311 ± 0.031
same,pre-steady-state target cleavage rate,[2],0.0217 ± 0.0044
UCCUGGAUGAGCCUGCAUAGUAUUUAGUUA,pre-steady-state target cleavage rate,[1],0.712 ± 0.053
same,pre-steady-state target cleavage rate,[2],0.0388 ± 0.0088
UCGAGCUACAGCUUGCAUAGUAUUUACUUA,pre-steady-state target cleavage rate,[1],0.399 ± 0.042
same,pre-steady-state target cleavage rate,[2],0.0462 ± 0.0084
ACGACCUACAGCUUGCAUAGUAUUUAGAAA,pre-steady-state target cleavage rate,[1],0.619 ± 0.047
same,pre-steady-state target cleavage rate,[2],0.0289 ± 0.0092
UCCUGCUACAGCUUCCAAAGUAUUUAGUUA,pre-steady-state target cleavage rate,[1],0.35 ± 0.033
same,pre-steady-state target cleavage rate,[2],0.00272 ± 0.0024
UGGACCUACAGCUUGCAUAGUAUAAUGUAA,pre-steady-state target cleavage rate,[1],0.109 ± 0.024
same,pre-steady-state target cleavage rate,[2],0.00483 ± 0.0028
UCCUGGAUCAGCUUGCAAAGUAUAUAGUUA,pre-steady-state target cleavage rate,[1],0.407 ± 0.033
same,pre-steady-state target cleavage rate,[2],0.0169 ± 0.0052
UCGACCUACAGCUUGCAUAGUAUAAUGUUA,pre-steady-state target cleavage rate,[1],0.514 ± 0.037
same,pre-steady-state target cleavage rate,[2],0.0213 ± 0.0053
UCCUGGAUCAGCUUGCAUACUAUUAAGUUA,pre-steady-state target cleavage rate,[1],0.101 ± 0.015
same,pre-steady-state target cleavage rate,[2],0.00664 ± 0.0024
UCGACCUACAGCUUGCAUAGUAUUUACAUA,pre-steady-state target cleavage rate,[1],0.283 ± 0.034
same,pre-steady-state target cleavage rate,[2],0.0198 ± 0.0068
UCCUGGAUCAGCUUGCAUGGUAUUUAGUUA,pre-steady-state target cleavage rate,[1],1.03 ± 0.057
same,pre-steady-state target cleavage rate,[2],0.0491 ± 0.014
UCCUGGAUGUCGUUGCAUAGUAUUUAGUUU [g2:g18:cont:t1U],pre-steady-state target cleavage rate,[1],0.0132 ± 0.0047
same,pre-steady-state target cleavage rate,[2],0.00361 ± 0.0031
UCCUGGAACAGCUUGCAUAGUAAUUAGUUA,pre-steady-state target cleavage rate,[1],0.798 ± 0.041
same,pre-steady-state target cleavage rate,[2],0.0276 ± 0.006
AGGACCUACAGCUUGGUUAGUAUUUAGUAA,pre-steady-state target cleavage rate,[1],0.559 ± 0.057
same,pre-steady-state target cleavage rate,[2],0.00682 ± 0.0022
UGGAGCUACAGCUUGCAUACUAUUUAGUUA,pre-steady-state target cleavage rate,[1],0.377 ± 0.015
same,pre-steady-state target cleavage rate,[2],0.0317 ± 0.0059
UCCACCUACAGCUUGCAAGUAUUUAGUUA,pre-steady-state target cleavage rate,[1],0.369 ± 0.031
same,pre-steady-state target cleavage rate,[2],0.00504 ± 0.0024
AGGUCCUACACCUUGCAUAGUAUUUAGUUA,pre-steady-state target cleavage rate,[1],1.11 ± 0.031
same,pre-steady-state target cleavage rate,[2],0.0618 ± 0.008
UCCUGGUACAGCAUGCAUAGAAUUUAGUUA,pre-steady-state target cleavage rate,[1],0.517 ± 0.11
same,pre-steady-state target cleavage rate,[2],0.00617 ± 0.0027
UCCUGCUACAGGAUGCAUAGUAUUUAGUAA,pre-steady-state target cleavage rate,[1],1.05 ± 0.18
same,pre-steady-state target cleavage rate,[2],0.00358 ± 0.0017
UCCUCGUACAGCUUGCAUACUAUUUAGUUA,pre-steady-state target cleavage rate,[1],0.365 ± 0.014
same,pre-steady-state target cleavage rate,[2],0.0348 ± 0.0084
UGGACCUACAGCUUGGAUAGUUUUUAGUUA,pre-steady-state target cleavage rate,[1],0.381 ± 0.017
same,pre-steady-state target cleavage rate,[2],0.0324 ± 0.0074
UCCUGGAUCAGCUUGCAUAGUAUUGUAGUUA,pre-steady-state target cleavage rate,[1],0.585 ± 0.033
same,pre-steady-state target cleavage rate,[2],0.0244 ± 0.0045
UCCUCGUACAGCUUCCAUAGUAUUUAGUUA,pre-steady-state target cleavage rate,[1],0.0635 ± 0.015
same,pre-steady-state target cleavage rate,[2],0.00365 ± 0.0012
UCGACCUACACCUUGCAUAGAAUUUAGUUA,pre-steady-state target cleavage rate,[1],0.395 ± 0.07
same,pre-steady-state target cleavage rate,[2],0.0128 ± 0.0024
UCCUGGAACAGCUAGCAUAGUAAUUAGUUA,pre-steady-state target cleavage rate,[1],0.369 ± 0.024
same,pre-steady-state target cleavage rate,[2],0.00836 ± 0.0027
UCCUGCUACAGCUUGCAUAGUAUUUAGUAUA,pre-steady-state target cleavage rate,[1],0.522 ± 0.033
same,pre-steady-state target cleavage rate,[2],0.0059 ± 0.0033
UCCACCUACAGCUUGAUAGUAUUUAGUUA,pre-steady-state target cleavage rate,[1],0.834 ± 0.042
same,pre-steady-state target cleavage rate,[2],0.00512 ± 0.0023
UCGACCAACAGCAUGCAUAGUAUUUAGUUA,pre-steady-state target cleavage rate,[1],1.33 ± 0.037
same,pre-steady-state target cleavage rate,[2],0.033 ± 0.0067
UCCACCUACAGCUUGCAUAGUAAUUUGUUA,pre-steady-state target cleavage rate,[1],0.342 ± 0.038
same,pre-steady-state target cleavage rate,[2],0.011 ± 0.0034
UCCUGGAACAGCUUGCAUAGUAAUUUAGUUA,pre-steady-state target cleavage rate,[1],0.0998 ± 0.011
same,pre-steady-state target cleavage rate,[2],0.00907 ± 0.0024
UCCUGGUACAGCAUGCAUUGUAUUUAGUUA,pre-steady-state target cleavage rate,[1],0.406 ± 0.026
same,pre-steady-state target cleavage rate,[2],0.013 ± 0.0032
AGGACCUACAGCUUGCAUAGUAAUUUGUUA,pre-steady-state target cleavage rate,[1],0.524 ± 0.055
same,pre-steady-state target cleavage rate,[2],0.0327 ± 0.01
UCCUGGAUGUCCUUGCAUAGUCUUUAGUUA,pre-steady-state target cleavage rate,[1],0.02 ± 0.0049
same,pre-steady-state target cleavage rate,[2],0.0105 ± 0.0023
UCCUCCUACAGCUUGCACAGUAUUUAGUUA,pre-steady-state target cleavage rate,[1],1.04 ± 0.031
same,pre-steady-state target cleavage rate,[2],0.0541 ± 0.0096
UCCAGCUACUGCUUGCAUAGUAUUUAGUUA,pre-steady-state target cleavage rate,[1],0.36 ± 0.035
same,pre-steady-state target cleavage rate,[2],0.0249 ± 0.0028
UCCUGGAUCAGCAUGCAUUGUAUUUAGUUA,pre-steady-state target cleavage rate,[1],0.254 ± 0.028
same,pre-steady-state target cleavage rate,[2],0.00772 ± 0.0032
UGGACCUACUCGUUGCAUAGUAUUUAGUUA,pre-steady-state target cleavage rate,[1],0.6 ± 0.049
same,pre-steady-state target cleavage rate,[2],0.0163 ± 0.0039
UCGACGUACAGCUUGCAAAGUAUUUAGUUA,pre-steady-state target cleavage rate,[1],1.26 ± 0.043
same,pre-steady-state target cleavage rate,[2],0.0364 ± 0.0077
UCCUCCUACAGCUUGCUUAGUUUUUAGUUA,pre-steady-state target cleavage rate,[1],0.19 ± 0.017
same,pre-steady-state target cleavage rate,[2],0.011 ± 0.0019
UCCUCCUACACCUUGCAUAGUAUUUAGUAA,pre-steady-state target cleavage rate,[1],0.653 ± 0.09
same,pre-steady-state target cleavage rate,[2],0.0189 ± 0.0041
UCCUGCUACUGCUUGCAUAGUAUAUAGUUA,pre-steady-state target cleavage rate,[1],0.226 ± 0.024
same,pre-steady-state target cleavage rate,[2],0.0142 ± 0.0034
UGGACCUACAGCAUGCAUAGUAUUUACAAA,pre-steady-state target cleavage rate,[1],0.276 ± 0.043
same,pre-steady-state target cleavage rate,[2],0.0036 ± 0.002
UCGACGAUCAGCUUGCAUAGUAUUUACAAA,pre-steady-state target cleavage rate,[1],0.415 ± 0.044
same,pre-steady-state target cleavage rate,[2],0.00606 ± 0.0021
UCCUGGAUGUGCUUGCACAGUAUUUAGUUA,pre-steady-state target cleavage rate,[1],0.558 ± 0.049
same,pre-steady-state target cleavage rate,[2],0.0421 ± 0.011
UCCUGGUAGAGCUUGCAUAGAAUUUAGUUA,pre-steady-state target cleavage rate,[1],0.167 ± 0.019
same,pre-steady-state target cleavage rate,[2],0.0205 ± 0.0076
UCGACCUACAGCUUGCUUAGUAUUUAGUUA,pre-steady-state target cleavage rate,[1],1.66 ± 0.074
same,pre-steady-state target cleavage rate,[2],0.0474 ± 0.01
UGGACGAUCAGCUUGCAUAGUAUUUAGAAA,pre-steady-state target cleavage rate,[1],0.499 ± 0.048
same,pre-steady-state target cleavage rate,[2],0.0141 ± 0.0042
UCCUGGAACAGCAUGCAUAGUAUUUAGUUA,pre-steady-state target cleavage rate,[1],1.06 ± 0.052
same,pre-steady-state target cleavage rate,[2],0.0304 ± 0.0059
UCCUGGAUGUGCUUGCAUAGUAUUGUAGUUA,pre-steady-state target cleavage rate,[1],0.199 ± 0.023
same,pre-steady-state target cleavage rate,[2],0.0189 ± 0.006
UCCUCCUACAGCUAUGCAUAGUAUUUAGUUA,pre-steady-state target cleavage rate,[1],0.812 ± 0.032
same,pre-steady-state target cleavage rate,[2],0.0189 ± 0.0035
AGGACCUUGAGCUUGCAUAGUAUUUACAAA,pre-steady-state target cleavage rate,[1],0.0854 ± 0.016
same,pre-steady-state target cleavage rate,[2],0.00462 ± 0.0018
UCCUGCUACAGCUUGCAUAGAAUAUAGUUA,pre-steady-state target cleavage rate,[1],0.218 ± 0.018
same,pre-steady-state target cleavage rate,[2],0.00935 ± 0.0033
UCCACCUACUGCUUGCAUAGUAUUUAGUUA,pre-steady-state target cleavage rate,[1],0.697 ± 0.027
same,pre-steady-state target cleavage rate,[2],0.0467 ± 0.0067
UCCACCUACAGCUAGCAAAGUAUUUAGUUA,pre-steady-state target cleavage rate,[1],0.839 ± 0.027
same,pre-steady-state target cleavage rate,[2],0.00645 ± 0.0023
UCCUCCUACUCGUUGCAUAGUAUUUAGUAA,pre-steady-state target cleavage rate,[1],0.466 ± 0.035
same,pre-steady-state target cleavage rate,[2],0.00623 ± 0.0016
AGGACGUACAGCUUGCAUAGUAUUUUCAAA,pre-steady-state target cleavage rate,[1],0.173 ± 0.044
same,pre-steady-state target cleavage rate,[2],0.00441 ± 0.0026
AGGACCAACAGCUUGCAUAGUAUUAAGUUA,pre-steady-state target cleavage rate,[1],0.756 ± 0.082
same,pre-steady-state target cleavage rate,[2],0.0463 ± 0.0088
UCCUGGUAGAGCUUGCAUAGUAAUUAGUUA,pre-steady-state target cleavage rate,[1],0.415 ± 0.038
same,pre-steady-state target cleavage rate,[2],0.0144 ± 0.005
UCCUGGAUCAGCUUGCAAAGUUUUUAGUUA,pre-steady-state target cleavage rate,[1],0.109 ± 0.013
same,pre-steady-state target cleavage rate,[2],0.0177 ± 0.0053
